Measurements as given in publication PMC12136788.
This is one part of the list.

B1: chr18:58105177:58105178:+_ENSMUSG00000024597_ENSMUST00000115366|mus_hu|FALSE|FALSE (ssRNA)
RNA: GGGAGUUCUACAGUCCGACGAUCGUUCUCUAUGAAACCUGUAUCUGUUAAUCUGAUUUUGAACAUAUGUUUACUUAAACCAAAGUUUGCCUAAUGAAUCUUGAUCACUUUAAAAUGCAAAAUACCAGCAACAUAAAUUUCAUUCAACAGAGGAUUGAGCAUCA
B2: chr1:67050029:67050030:-_ENSMUSG00000026000_ENSMUST00000119559|mus_mus|FALSE|FALSE (ssRNA)
RNA: GGGAGUUCUACAGUCCGACGAUCUUCCUUCAAAAGCAAGGGCAAUAUGUAGCCCAGAGUAAUACACAGAGUCAUGCUGUAAGCGGCAGGAGACAUGCUUUCUUUUCAGAGUUCAAAUGCAGGGAACUUGGCCUUUGUGGGGACCAACAGAGGAUUGAGCAUCA
B3: 144006312_144006432_1124_CDS_ENSMUSG00000029587_ENSMUST00000032591|mouse|control|control (ssRNA)
RNA: GGGAGUUCUACAGUCCGACGAUCCUGGUGGACGGUGAGGGUGCCCUUCUGGCAGAAGGACUUCCCACACUGACUGCACUUGAAGGGCUUCUCUCCUGUGUGAGUCCUCUGAUGGAUGACGAACUUGGACUUUUUGCAGAAGGACAACAGAGGAUUGAGCAUCA
B4: chr3:119450855:119450856:-_ENSMUSG00000028134_ENSMUST00000029780|mus_hu|mus_mus_mus_hu_False|78_98 (ssRNA)
RNA: GGGAGUUCUACAGUCCGACGAUCUGUGGUGCCACUAAGAGGUGUAUUUGCUGUCUGGACCGCUGUCACAGCUUGAAGAACUGCCUGAGCACGUUGGUUUAAUGUAUUAUCUGUCUUUAGUUCUUUGUGAUUCGAGUACUGGAUCAACAGAGGAUUGAGCAUCA
B5: chr6:108533379:108533380:-_ENSG00000112335_ENST00000426155|hu_hu|motif|central (ssRNA)
RNA: GGGAGUUCUACAGUCCGACGAUCGCCCCUUCUUGCCAAAUUUCAGGCAUGUCUUAUUUUAGAUGGAGUAUAGCUUUUAUCGGUUAUUUCAUCUUGUAAAAACAUGUGAAGACAACGUUCGUUCUGUGCCAGAGGAUGACCAGCCAACAGAGGAUUGAGCAUCA
B6: chr3:10015032:10015033:+_ENSMUSG00000027533_ENSMUST00000029046|mus_mus|mus_mus_mus_hu_True|78_98 (ssRNA)
RNA: GGGAGUUCUACAGUCCGACGAUCGUUUUUACCAUCACACGUAAUGAUACAAUCUGGCUUGGCCAUGGCGCCCAUUUUUCGCAAAGCUAUUCCCACUCCUAGCUCCUUCAUGUAUUCAUCAAAGCCUUUGCUGUCCACCAGGCGCAACAGAGGAUUGAGCAUCA
B7: chr4:63681588:63681589:-_ENSMUSG00000028364_ENSMUST00000107372|mus_hu|FALSE|FALSE (ssRNA)
RNA: GGGAGUUCUACAGUCCGACGAUCGCUUGUGCCGGAUGACUUUCUUGAGGACCCCACCUUCGGUAGCGAGGGCAAGGAAAGCAAGAAAGACACCUGCCAACAGCUGAGUCAUGGCCCCCAUGGUGGAGGUGGGUUUGGCUGGGUCAACAGAGGAUUGAGCAUCA
B8: chr15:66169770:66169771:+_ENSG00000103769_ENST00000567671|perfect_dup|motif|central (ssRNA)
RNA: GGGAGUUCUACAGUCCGACGAUCGUCCCAUAUCUGUGCCUUUAUUGUUUUCCCAUCAACCUGGAUGCUUCUUGUUGCAAACUCGGCUCCAAUGGUACUCUUGCUUUCCAGAUUAAACUCAUUUCGAGUAAAUCGAGACAGGAGCAACAGAGGAUUGAGCAUCA
B9: chr22:32879901:32879902:+_ENSG00000100225_ENST00000397426|hu_mus|hu_hu_hu_mus_False|58_108 (ssRNA)
RNA: GGGAGUUCUACAGUCCGACGAUCCUCUGCCAUAUGCAUGGCAUCCUGAAUUGACUCAGCUUCAACAUUUUGACUAGGCCCUAACAUACUGUCAUCAGUCCAGGCAUCAAAUGGGGUGGCCUGUCCUUGGGAUGAAUCAGUCCCCAACAGAGGAUUGAGCAUCA
B10: 7411273_7411393_443_CDS_ENSMUSG00000040021_ENSMUST00000165952|mouse|control|control (ssRNA)
RNA: GGGAGUUCUACAGUCCGACGAUCUUUUGAUAAAUUCCUCAGGGAUUCUCGGAUCUCCUGCAGCAUCUGUCGGCUGCUGCCAGGGUAGUUGCUGGCAGGAAAGGUCUUAGGCCUCAUCUGUCUGUACCCUUCUGGCUUUUCACCCAACAGAGGAUUGAGCAUCA
B11: 82873911_82874031_790_3pUTR_ENSMUSG00000042724_ENSMUST00000035987|mouse|control|control (ssRNA)
RNA: GGGAGUUCUACAGUCCGACGAUCGCCUCUUGGCGAACGUUCUCUAUGGUCUGGCUGAUGUCCUCAUCAGGGUCGUGACGAGCUGCCUUCACGGCCACCUCAUCGCCCGCCCAGAAAGCACGAUAAACUUUCCCAAAGCCCCCACAACAGAGGAUUGAGCAUCA
B12: chr13:31722580:31722581:-_ENSG00000120694_ENST00000320027|hu_hu|motif|central (ssRNA)
RNA: GGGAGUUCUACAGUCCGACGAUCUGAAUCAUGGUUCCAGAUCAGAGAUAUUGGAAAAGGAACUGCAUCUGUGACGGAAAAUUCUCGGACUUUAAAUGCCGGGGAAAGUAUUGCACACUGUAAUGCACAUCCUCUGGCUACUGCCAACAGAGGAUUGAGCAUCA
B13: chr16:45382771:45382772:-_ENSMUSG00000022661_ENSMUST00000163230|mus_mus|mus_mus_mus_hu_True|58_98 (ssRNA)
RNA: GGGAGUUCUACAGUCCGACGAUCCUGGGUCAUGUUAUGGGCCCAAUGGACAGGGAGGGCAUGCUUCUCAAAAAAUGUGAACUACUCUCUAAGACUAACAAUAUUUAUCUAGCUAUAAAAAUAAGUUAAAUGAAUAAGUUAAGACAACAGAGGAUUGAGCAUCA
B14: chr1:129704038:129704039:+_ENSMUSG00000026349_ENSMUST00000027587|mus_hu|FALSE|FALSE (ssRNA)
RNA: GGGAGUUCUACAGUCCGACGAUCUACAGCAAUUAGGUUGCUCACUGAUUUCUGAUAUUAACGUAUCAGAAUGUGAUUCUCAAAUUAGUAUCAUAGCUUGGUACCCAAGGUCAGAGAAUGUGCUGCUUUUCCAAUGCAAAAAUCCAACAGAGGAUUGAGCAUCA

What follows are binders tested against T1, UNK ZnF1-3 (human, UniProt Q9C0B0 31-174) (assay: nsRBNS (natural sequence RNA bind-n-seq); RBNS binding buffer (assumed for nsRBNS): 25 mM Tris pH 7.5, 150 mM KCl, 3 mM MgCl2, 0.01% Triton X-100, 500 ug/ml BSA, 20 U/ml SUPERase-In, 4 C; UNK is unkempt and MSI1 is Musashi-1; names of the RNAs are library labels; protein concentration not given here; high values mean tight binding).
T1 sequence: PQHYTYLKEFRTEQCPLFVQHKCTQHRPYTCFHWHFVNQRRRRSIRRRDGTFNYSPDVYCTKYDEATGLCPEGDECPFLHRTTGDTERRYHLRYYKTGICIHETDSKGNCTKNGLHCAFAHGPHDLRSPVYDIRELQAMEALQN

Binder	binding signal [enrichment R]
B1	0.638
B2	1.33
B3	0.495
B4	0.701
B5	0.978
B6	0.731
B7	1.06
B8	0.678
B9	0.945
B10	0.198
B11	0.876
B12	0.926
B13	0.714
B14	0.97
